# Source: publication PMC4336329 (PLoS ONE, 2015)
# The campaign covered roughly 310,000 compounds. About 2,200 (0.71%) showed an effect of 50% or more. The effect is printed as a negative number. Some of the results follow.
# Biological target: human ether-à-go-go-related gene (hERG) potassium channel (human, UniProt Q12809)
# Assay: primary screen, population patch clamp on CHO cells stably expressing hERG
# human ether-à-go-go-related gene (hERG) potassium channel, sequence (Q12809 whole entry, looked up): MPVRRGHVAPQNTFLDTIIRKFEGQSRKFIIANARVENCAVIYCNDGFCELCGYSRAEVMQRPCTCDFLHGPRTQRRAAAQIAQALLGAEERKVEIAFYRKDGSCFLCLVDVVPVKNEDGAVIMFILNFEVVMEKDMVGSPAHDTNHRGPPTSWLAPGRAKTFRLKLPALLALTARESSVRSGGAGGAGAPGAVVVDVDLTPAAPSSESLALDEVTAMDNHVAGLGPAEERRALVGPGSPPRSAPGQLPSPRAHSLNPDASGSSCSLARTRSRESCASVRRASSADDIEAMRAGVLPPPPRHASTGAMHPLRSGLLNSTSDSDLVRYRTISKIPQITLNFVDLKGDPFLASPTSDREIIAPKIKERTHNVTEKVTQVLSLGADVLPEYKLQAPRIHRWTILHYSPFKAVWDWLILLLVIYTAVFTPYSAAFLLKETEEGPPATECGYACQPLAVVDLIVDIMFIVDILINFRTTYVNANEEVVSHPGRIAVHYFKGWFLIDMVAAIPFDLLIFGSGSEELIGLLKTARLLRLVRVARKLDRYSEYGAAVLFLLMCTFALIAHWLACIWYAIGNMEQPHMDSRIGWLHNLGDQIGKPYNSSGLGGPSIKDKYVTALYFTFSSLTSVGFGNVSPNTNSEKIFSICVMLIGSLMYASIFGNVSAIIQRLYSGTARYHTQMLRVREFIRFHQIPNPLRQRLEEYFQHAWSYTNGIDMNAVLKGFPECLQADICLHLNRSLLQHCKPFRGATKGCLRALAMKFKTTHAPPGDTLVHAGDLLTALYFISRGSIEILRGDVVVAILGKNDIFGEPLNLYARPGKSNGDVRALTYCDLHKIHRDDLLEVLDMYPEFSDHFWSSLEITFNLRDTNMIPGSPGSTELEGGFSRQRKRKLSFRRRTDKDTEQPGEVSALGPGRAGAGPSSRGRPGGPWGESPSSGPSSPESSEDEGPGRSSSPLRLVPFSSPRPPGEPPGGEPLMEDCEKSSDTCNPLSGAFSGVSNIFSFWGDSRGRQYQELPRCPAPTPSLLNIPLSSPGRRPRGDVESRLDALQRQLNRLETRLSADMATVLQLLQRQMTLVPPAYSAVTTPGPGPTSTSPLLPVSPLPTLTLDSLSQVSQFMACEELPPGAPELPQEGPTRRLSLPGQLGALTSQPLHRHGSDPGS
row,SMILES,"hERG current change (%, negative = inhibition) at 1uM [%]"
1,COC(=O)[C@@H](NC(=O)NCCC1=CCCCC1)C(C)C,9.52
2,COc1cccc(C(=O)N(Cc2ccccc2)Cc2cc3cc4c(cc3[nH]c2=O)OCCO4)c1,5.94
3,Cn1nnnc1SCC(=O)Nc1ccccc1N1CCCCC1,-2.11
4,CCOC(=O)c1c(CS(=O)(=O)c2ccccc2)n(C)c2cc(Br)c(O)cc12,6.21
5,Cc1ccc(NC(=O)c2ccc(OC(=O)COc3ccc(Cl)c(C)c3)cc2)cc1,9.75
6,CCOC(=O)C1(Cc2cccc(OC)c2)CCCN(Cc2cc(OC)c(O)c(OC)c2)C1 (centres unmarked),5.61
7,CCc1cccc(C)c1NC(=O)CNCc1ccccc1.O=C(O)C(=O)O,8.15
8,COC(=O)C1=C(c2ccc3ccccc3c2)C[C@@H]2CC[C@H]1N2C(=O)NC1CC1,14.4
9,S=c1[nH]cnc2scc(-c3ccc(Cl)cc3)c12,10.5
10,CCOC(=O)c1ccc(Nc2nnc(C(C)(C)C)c(=O)[nH]2)cc1,5.69
11,COc1ccc(NC(=O)CSc2nnc(C)n2N)cc1S(=O)(=O)N1CCCCC1,7.99
12,Cc1c(Cl)ccc2sc(NC(=O)c3ccco3)nc12,18.7
13,O=C1N[C@@H](Cc2cn(S(=O)(=O)c3ccc([N+](=O)[O-])cc3)c3ccccc23)C(=O)N[C@H]1Cc1ccccc1,13.5
14,COc1cccc(C2c3c(oc4ccccc4c3=O)C(=O)N2CCCN(C)C)c1OC (centres unmarked),19.4
15,O=C(Nc1c2c(nn1-c1ccc(F)cc1)CS(=O)C2)c1ccc2c(c1)OCO2 (centres unmarked),19.2
16,CC(=O)Nc1ccc(N)cc1,9.92
17,Cc1ccc(Cl)cc1NC(=S)N(CCCN1CCN(C)CC1)Cc1cccs1,-11.9
18,COc1cccc(/C=N/NC(=O)Cn2nc(C)c([N+](=O)[O-])c2C)c1O,4.39
19,COc1ccc(CCNC(=O)CSc2nnc(CNC(=O)c3c(F)cccc3Cl)o2)cc1OC,17.7
20,Cc1cc(=O)[nH]c(Sc2c(-c3ccccc3)c3ccccc3[nH]c2=O)n1,3.54
21,O=C(CSc1nnc(NCc2ccccc2)s1)N1CCOCC1,0.553
22,CC(=O)c1cn(-c2ccc(Cl)cc2)c(=O)[nH]c1=O,6.76

row,SMILES,"hERG current change (%, negative = inhibition) at 1uM [%]"
1,COc1cc2c(C(=O)O)c(C)n(C)c2c2ccccc12,19
2,CCOc1ccccc1NC(=O)c1cnccn1,9.24
3,COc1ccc(OCCn2cc(/C(N)=N/O)c3ccccc32)cc1,-6.35
4,CC(=O)Oc1oc(-c2ccccc2)nc1/C=N/c1ccccn1,-2.1
5,Cc1cc2ncn(C(=O)c3ccc4c(c3)OCO4)c2cc1C,-0.531
6,CCC(C(=O)NCC1CCCO1)N(Cc1ccc(F)cc1)C(=O)CNS(=O)(=O)c1ccccc1 (centres unmarked),10.7
7,N#Cc1c(-c2ccccc2)c(-c2ccccc2)nn(CC(=O)NNC(=O)Nc2ccc(Cl)cc2)c1=O,9.08
8,Cc1ccc(NC2=NCCCS2)c(C)c1C,4.85
9,CCCCCc1c(O)nc(SCCN2CCOCC2)[nH]c1=O.Cl,-0.95
10,COc1ccc(/C(O)=C2/C(=O)C(=O)N(CC3CCCO3)C2c2ccc(OC)c(OC)c2)cc1 (centres unmarked),6.71
11,CCCCN1CCc2c(c3ccccc3n2Cc2ccccc2)C1,-48.8
12,COC1=C[C@@H]2C3=C([C@@H]2C1=O)[C@@H](NC(C)=O)CCc1cc(OC)c(OC)c(OC)c13,13.5
13,Cc1ccc(-c2noc(CCC(=O)N(C)c3ccccc3C)n2)cc1,10.2
14,CCN(CC)C(=O)CSc1nnc(SCc2ccc(Cl)cc2)s1,17.5
15,COc1cccc(/C=N\NC(C)=O)c1OC/C=C/c1ccccc1,17.8
16,O=[N+]([O-])c1ccccc1Nc1c2ccccc2nc2ccccc12,-18.4
17,O=C(CC(c1ccccc1)c1ccccc1)NCCOCc1ccccc1,17.4
18,O=C(COc1ccc2c(-c3ccccc3)cc(=O)oc2c1)Nc1cccnc1,8.24
19,COc1ccc(N(CC(=O)NC2CC3CCC2C3)S(=O)(=O)c2ccc(C)c([N+](=O)[O-])c2)cc1 (centres unmarked),10.2
20,COc1ccc(/C=C2/SC(=S)N(NS(=O)(=O)c3ccccc3)C2=O)cc1,3.19
21,O=C(O)c1cccc(CSc2nnc(-c3ccc(Cl)cc3)o2)c1,12.3
22,CCN(CC)c1ccc(C2NCC(c3ccc([N+](=O)[O-])cc3)O2)cc1 (centres unmarked),6.89

row,SMILES,"hERG current change (%, negative = inhibition) at 1uM [%]"
1,CCCNC(=O)c1ccc2c(=O)n(Cc3ccco3)c(=S)[nH]c2c1,10.3
2,COc1ccc(/C=C/C(=O)c2cc(Cl)cc(Cl)c2O)c(OC)c1,14.1
3,Cn1c(O)c(N=NC(=O)c2ccco2)c2ccccc21,12.1
4,CCOc1cc(/C=C2\SC(=S)N(C(C(=O)O)c3ccccc3)C2=O)ccc1O (centres unmarked),12.9
5,O=C(CSCc1ccc(Cl)cc1)Nc1ccccc1C(=O)N1CCOCC1,3.86
6,CCOC(=O)c1nnn(-c2nonc2N)c1-c1ccc(C)cc1,4.41
7,Cc1cccc(-n2c(-c3cccc([N+](=O)[O-])c3)nc3nc4ccccc4nc32)c1,0.927
8,O=C(c1ccc([N+](=O)[O-])cc1)N1CCSC1c1ccc(Cl)cc1 (centres unmarked),-33.8
9,CCOc1ccc(CCNC(=O)COC(=O)CNC(=O)c2ccc(Br)o2)cc1OCC,-2.04
10,CN(C)CCn1c2c(c(SCC(=O)Nc3cccc4ccccc34)nc1=O)CCCC2,0.674
11,COc1ccc(C2CC(c3ccccc3)Nc3nc(NS(C)(=O)=O)nn32)cc1 (centres unmarked),12.8
12,COc1ccc(S(=O)(=O)Nc2ccc(NC(C)=O)cc2)cc1OC,12.1
13,CCn1c(COc2ccc(Cl)c(C)c2)nnc1SCC(=O)N1CCCC1,0.0557
14,O=C(Nc1ccccn1)NC12CC3CC(CC(C3)C1)C2,6.44
15,CC(NC(=O)C1CCN(C(=O)Nc2ccccc2)CC1)c1ccccc1Cl (centres unmarked),5.29
16,CCN1C(=O)C(=C/C=C/c2ccco2)C(=O)N(CC)C1=S,-15.5
17,COC(=O)c1ccccc1-c1ccc(C(c2c(C)[nH][nH]c2=O)c2c(C)[nH][nH]c2=O)o1,19.6
18,O=S(=O)(c1ccccc1S(=O)(=O)N1CCCCC1)N1CCCCC1,7.93
19,O=C(c1ccc(Cl)cc1)C1CCCN(Cc2ccc(Oc3ncccn3)cc2)C1 (centres unmarked),-13.9
20,CC(=O)c1ccc(N2CCN(C(=O)CN(C)S(=O)(=O)c3cnc[nH]3)CC2)cc1,2.11
21,Cc1nn(Cc2ccccc2)c(C)c1C(=O)NCc1ccccc1F,11.3
22,Cc1nnc(SCC(=O)NCc2ccc(Cl)cc2)[nH]c1=O,1.28

row,SMILES,"hERG current change (%, negative = inhibition) at 1uM [%]"
1,COc1cccc(NC(=O)c2ccc(N3C(=O)C4CCC(C)CC4C3=O)cc2)c1 (centres unmarked),-5.87
2,CC(C)CC(NC(=O)/C(=C/c1ccco1)NC(=O)c1ccc(Br)o1)C(=O)O (centres unmarked),17.3
3,O=C(N=NC(=O)c1ccco1)c1ccc2c(O)n(N3C(=O)c4ccccc4C3=O)c(O)c2c1,-0.215
4,CC(=O)CC(c1ccc([N+](=O)[O-])cc1)c1c(O)c2ccccc2oc1=O (centres unmarked),13.9
5,CC1CC(C)CN(CCCNC(=O)CN2C(=O)c3cccnc3Oc3ccc(Cl)cc32)C1 (centres unmarked),-9.7
6,CC1Oc2ccccc2N(CC(=O)N2CCCC2)C1=O (centres unmarked),10.1
7,CCOC(=O)C1CCN(C(=O)/C(C)=C\c2ccccc2)CC1,13.9
8,CNc1cc(N2CCCCCC2)ccc1[N+](=O)[O-],4.89
9,N#CC1=C(N)Oc2cc(O)ccc2C1c1ccccc1 (centres unmarked),17.3
10,O=C(C1CC1)N1CCC(Oc2cccc(C(=O)N3CCCCC3CCO)c2)CC1 (centres unmarked),15.6
11,CCCN1CCC(NC(=O)c2cccc(Oc3ccccc3)c2)CC1,-26.7
12,O=c1[nH]c(C2CCN(S(=O)(=O)c3ccc(F)cc3)CC2)nc2c1nnn2Cc1ccc2c(c1)OCCO2,13
13,O=C(COC(=O)c1ccco1)Nc1nnc(-c2ccccc2)o1,16.1
14,O=C(CN1C(=O)/C(=C/c2ccco2)SC1=S)Nc1ccc(C(=O)O)c(O)c1,9.57
15,CC1CC(C)CN(CCCNC(=O)c2ccc3nc(N4CCOCC4)sc3c2)C1 (centres unmarked),-1.81
16,Cc1ccc(N(Cc2cc3cc(C)ccc3[nH]c2=O)C(=O)c2cccs2)cc1,13.5
17,Cl.NCCCCCc1nnc(SCC(N)=O)o1,2.96
18,CCOC(=O)C1=NNC(C(=O)c2ccc(OC)cc2)C1c1ccccc1 (centres unmarked),5.18
19,CCC1=NN2C(=N)/C(=C/c3ccc(OS(=O)(=O)c4ccccc4)cc3)C(=O)N=C2S1,15.9
20,O=C(CSc1ncnc2sccc12)N1CCN(C(=O)c2cccs2)CC1,-8.79
